# Results taken from PubChem BioAssay (NCATS).
# Values joined by “and” are separate entries in the source; they are usually repeats but may differ in a detail not shown here. Equal values may be shown once. The shares of active, inactive and inconclusive entries below differ from those in the screen. Potencies of inconclusive entries are doubtful fits and often do not repeat. Active and inactive are the calls of the source. The call rests on the fitted dose curve; in most records, active means well fitted cell-killing curve with a large enough effect; inconclusive means small, poorly fitted or top-dose-only effect; inactive means no such curve, though single readings can be large or run the other way.
# Assay: qHTS of pediatric cancer cell lines to identify multiple opportunities for drug repurposing: Primary screen for SK-N-MC cells (AID 1347093)
# Conditions: SK-N-MC viability, CellTiter-Glo luminescence, 48 h; series mostly up to 46 µM
# Summary of the method: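 Metabolically active cells were quantified by ATP-dependent luminescence (CellTiter-Glo, 15 min at room temperature) following 48 h treatment. Cells had been plated at 500-1,000 per well and settled for 5 h beforehand.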
# Potency means the concentration at half of the fitted maximal effect; tags describe the fitted curve by direction and shape.
row,Compound,Potency
1,O=S(=O)(O)C(F)(F)C(F)(F)C(F)(F)C(F)(F)C(F)(F)C(F)(F)C(F)(F)C(F)(F)F,inactive
2,CCC(=O)C(CC(C)N(C)C)(c1ccccc1)c1ccccc1 (stereo not given),"inconclusive: 61.7 µM [cytotoxic, single point]"
3,N#CC(C#N)=Cc1ccc(O)c(O)c1,active: 13.3 µM
4,C=C1C[C@H]2[C@H]3CCC(=O)[C@@]3(C)CC[C@@H]2[C@@]2(C)C=CC(=O)C=C12,"inconclusive: 37.2 µM [cytotoxic, single point]"
5,O=c1c(C2CC(c3ccc(-c4ccc(Br)cc4)cc3)Cc3ccccc32)c(O)sc2ccccc12 (stereo not given),"inconclusive: 5.31 µM [cytotoxic, full curve, poor fit]"
6,C[C@H](CN1CCOCC1)C(C(=O)N1CCCC1)(c1ccccc1)c1ccccc1,"inconclusive: 66.3 µM [cytotoxic, single point]"
7,O=C(O)c1nn(Cc2ccc(Cl)cc2Cl)c2ccccc12,inactive
8,c1ccc2c(c1)OCC(C1=NCCN1)O2 (stereo not given),active: 18.8 µM
9,CC(C)=CCN1CC[C@@]2(C)c3cc(O)ccc3C[C@@H]1[C@@H]2C,"inconclusive: 42.4 µM [cytotoxic, partial curve, poor fit]"
10,CC[C@H]1C[C@@H]2C[C@H]3c4[nH]c5ccc(OC)cc5c4CCN(C2)[C@@H]13,"inconclusive: 59.9 µM [cytotoxic, single point]"
11,CC1Sc2c(C(=O)O)c(=O)c3cc(F)c(N4CCNCC4)cc3n21 (stereo not given),"inconclusive: 7.5 µM [cytotoxic, partial curve, poor fit]"
12,CCN(CC)Cc1nccn1-c1ccc([N+](=O)[O-])cc1C(=O)c1ccccc1Cl,"inconclusive: 33.5 µM [cytotoxic, partial curve, poor fit]"
13,O=P1(N(CCCl)CCCl)NCCCO1 (stereo not given),inactive
14,Clc1ccc(C(OCCN2CCCCC2)c2ccccc2)cc1 (stereo not given),"inconclusive: 26.6 µM [cytotoxic, partial curve, poor fit]"
15,COP(=S)(OC)SCN1C(=O)c2ccccc2C1=O,"inconclusive: 33.5 µM [cytotoxic, single point]"
16,CC(CC(C#N)(c1ccccc1)c1ccccc1)N(C)C (stereo not given),"inconclusive: 24.3 µM [cytotoxic, partial curve]"
17,CC1(N2CCC(n3c([C@@H]4CCCNC4)nc4ccccc43)CC2)CCCCCCC1,"inconclusive: 26.4 µM [cytotoxic, single point]"
18,CCOC(=O)c1cncn1[C@H](C)c1ccccc1,inactive
19,COC1=C[C@@H]2[C@@H]3Cc4ccc(OC)c(O)c4[C@]2(CCN3C)CC1=O,active: 13.2 µM
20,COc1cc(C[C@@H](C)N)c(OC)cc1C,inactive
21,CN(C)CCN(C)CCc1ccc(Cl)c(Cl)c1,active: 14.8 µM
22,C=CCN1CC[C@]23CCCC[C@H]2[C@H]1Cc1ccc(O)cc13,inactive
23,C=C1C[C@@H]2[C@H](CC[C@]3(C)C(=O)CC[C@@H]23)[C@@]2(C)C=CC(=O)C=C12,"inconclusive: 16.8 µM [cytotoxic, single point]"
24,COc1ccc(Cc2nccc3cc(OC)c(OC)cc23)cc1OC,"inconclusive: 18.8 µM [cytotoxic, single point] and inconclusive: 33.2 µM [cytotoxic, single point]"
25,CC(C)(C)c1cc(C=C(C#N)C#N)cc(Br)c1O,"inconclusive: 33.2 µM [cytotoxic, single point]"
26,O=S(=O)(CC1CS1)c1ccc(Oc2ccccc2)cc1 (stereo not given),"inconclusive: 4.18 µM [cytotoxic, partial curve, poor fit]"
27,O=S(=O)(F)Cc1ccccc1,"inconclusive: 0.59 µM [cytotoxic, full curve, poor fit]"
28,Cn1cc(C2=C(c3cn(C4CCN(Cc5ccccn5)CC4)c4ccccc34)C(=O)NC2=O)c2ccccc21,"inconclusive: 590 nM [cytotoxic, full curve, poor fit] and inconclusive: 5.31 µM [cytotoxic, full curve]"
29,C#C[C@]1(O)CC[C@H]2[C@@H]3CCC4=CC(=O)CCC4=C3C=C[C@@]21CC,"inconclusive: 33.5 µM [cytotoxic, single point]"
30,C=C[C@@H]1CN2CCC1C[C@H]2[C@H](O)c1ccnc2ccccc12 (stereo not given in full),"inconclusive: 16.6 µM [cytotoxic, partial curve]"
